Four molecules from US20260240844A1, “INHIBITORS OF CHD1L AND USES THEREOF” (The Regents of the University of Colorado, a body corporate, priority 2023, published 2026) can be followed below.

For this assay, the system named is γ-H2AX foci in SUM149PT cells. The note with it: for DNA damage (γ-H2AX foci): single agent; for DNA damage in combination: combined with Compound 6.

On to `Cc1cc(Nc2ccc(NC(=O)Cc3cc(Br)cs3)cc2)nc(N2CCCC2)n1` [Compound 6.11, 2-(4-bromothiophen-2-yl)-N-(4-((6-methyl-2-(pyrrolidin-1-yl)pyrimidin-4-yl)amino)phenyl)acetamide], for which the “DNA damage (γ-H2AX foci)” value is “does not induce DNA damage”. For the molecule `Cc1cc(Nc2ccc(NC(=O)Cc3cccs3)cc2)nc(N2CCCC2)n1` [Compound 6, N-(4-((6-methyl-2-(pyrrolidin-1-yl)pyrimidin-4-yl)amino)phenyl)-2-(thiophen-2-yl)acetamide], the “DNA damage (γ-H2AX foci)” value is given as “does not cause DNA damage”. Where the note is “SUM149PT cells, Compound 6 combined with olaparib”, the “Bliss Synergy Score, γ-H2AX foci” value was found to be 11.19. For `O=c1[nH]cc(F)c(=O)[nH]1` [Compound 5-FU, 5-fluorouracil], where the note is “SUM149PT cells”, the “DNA damage in combination” value was “synergistic increase in DNA damage”. Turning to `COc1cccc2c1C(=O)c1c(O)c3c(c(O)c1C2=O)C[C@@](O)(C(=O)CO)C[C@@H]3O[C@H]1C[C@H](N)[C@H](O)[C@H](C)O1` [doxorubicin], under “SUM149PT cells”, the “DNA damage in combination” value was “synergistic increase in DNA damage”.
